In a compilation of properties of binary mixtures (doi:10.1016/j.molliq.2022.120410):
Some of these densities may be calculated back from excess volumes.

Assay: xn = mol fraction of the nth substance listed
Conditions: 101.3 kPa

OCCOCCO + CC[NH3+].O=[N+]([O-])[O-]
x2 = 0
Conditions	mass density [kg/m3]
298.1 K	1112.6
308.1 K	1105.5

CC[NH3+].O=[N+]([O-])[O-] + OCCOCCO
mass density [kg/m3]
Conditions	298.1 K	308.1 K	318.1 K
x1 = 0.0488	1119.8	1112.7	1105.6
x1 = 0.0983	1126.3	1119.3	1112.4
x1 = 0.197	1138	1131.4	1124.7
x1 = 0.2961	1148.1	1141.7	1135.2
x1 = 0.3955	1157.2	1150.9	1144.6
x1 = 0.4954	1166.3	1160	1153.8
x1 = 0.5955	1174.9	1168.7	1162.5
x1 = 0.6961	1183.7	1177.5	1171.3
x1 = 0.797	1192.6	–	1180.2
x1 = 0.8983	1200.8	1194.6	1188.5
x1 = 1	–	1202.9	1196.8
